Reference: PubChem BioAssay AID493208 (National Center for Advancing Translational Sciences (NCATS), 2011)
Out of some 44,000 compounds screened, about 340 (0.77%) were called active. Another 5% or so got no clear call; they are omitted. Calls follow the shape of the dose curve; as a rule, active = well fitted inhibition curve with a large enough effect; inconclusive = small, poorly fitted or top-dose-only effect; inactive = flat fitted curve, though single readings scatter. The list shows a part of the results.

Experiment: Acumen qHTS Assay for Inhibitors of the mTORC1 Signaling Pathway in MEF (Tsc2-/-, p53-/-) Cells: Sytravon;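 also: plate controls were DMSO for no effect and rapamycin for full effect; nearly all actives have a fitted effect of over 50% in size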
Settings: phospho-rpS6 immunofluorescence/PI, 24 h; series mostly up to 38.3 µM; activity change, negative = inhibition: at the top concentration
Procedure, shortened: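 Cell-based qHTS: Tsc2-/- p53-/- MEF, 24 h cpd, 37 °C; fix/perm, anti-phospho-S6 Alexa-488 + PI; Acumen 488 nm scan; pS6/PI ratio, % positive cells; rapamycin 7.5 nM = inhibition ref; PI count = viability.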

Activity change, negative = inhibition, inactive:
O=C(NC1CC(=O)N(c2ccc(Cl)cc2)C1)C(=O)c1c[nH]c2ccccc12 (stereo not given) -7.23%, COc1cccc(NC(=O)c2sc3nc(N4CCOCC4)c4c(c3c2N)CC(C)(C)OC4)c1 0.0754%, Cc1cccc(NC(=O)NCCn2c(=O)oc3ccc(C)cc32)c1 -3.31%, Cc1oc2c(c1C(=O)NCc1cccc(Br)c1)C1=NCCN1C=N2 -7.69%, COc1cc(NC(=O)C(CC(C)C)NS(=O)(=O)c2ccc3c(c2)CCCC(=O)N3)cc(OC)c1 (stereo not given) 2.34%, CCOC(=O)Cn1c(=O)n(CC2CCCO2)c2nc(-c3ccc(OC)cc3OC)nc(C(N)=O)c21 (stereo not given) 4.39%, Cc1ccc(CNC(=O)CCCn2c(=O)c3ccccc3n(CC(=O)C(C)(C)C)c2=O)cc1 -0.838%, COc1ccc2oc(=O)c(-c3csc(/C(C#N)=C/c4ccc(F)cc4)n3)cc2c1 -8.17%, COc1ccc(CNC(=O)CN(c2ccc(C)cc2)S(=O)(=O)c2c(C)n[nH]c2C)cc1 -7.61%, CCOc1ccc(NC(=O)Cn2c(=O)n(-c3ccc(C)cc3)c(=O)c3cc(OC)c(OC)cc32)cc1 6.21%, COc1ccc(CNC(=O)c2cc3c(-c4ccccc4F)nn(C)c3s2)c(OC)c1 -5.33%, COc1ccccc1N1CCN(C(=O)C2CCN(S(=O)(=O)c3cnc[nH]3)CC2)CC1 0.0002%, CCOC(=O)c1c(NC(C)=O)c2c3c(sc2n1Cc1nc(-c2ccccc2OCC)oc1C)CCCC3 -0.881%, COc1cccc(NC(=O)Cn2cc(C(=O)C3CCCCC3)c3ccccc32)c1 -5.37%, Cc1ccc(C)c(N2CCN(C(=O)c3cnc4c(-c5ccccc5)c(C)nn4c3C)CC2)c1 7.13%, Cc1ccc(/C=C(\C#N)C(=O)Nc2cc(C)ccc2C)cc1 -3.75%, Cc1ccc(C)c(CN2C(=O)c3ccccc3S(=O)c3ccc(C(=O)NCc4ccccc4Cl)cc32)c1 (stereo not given) 4.64%, COc1cccc(CNC(=O)CN2C(=O)N(c3cc(C)ccc3C)S(=O)(=O)c3ccccc32)c1OC -0.0246%, O=C(Nc1ccc(-c2cc(C(F)(F)F)nn2-c2ccccc2)cc1)c1cccc(F)c1 3%, CCN(CC)c1ccc(C(=O)NCc2ccc3c(c2)CCN3C(=O)c2ccccc2)cc1 -6.53%, Brc1ccccc1-n1ncc2c1ncn1nc(Cc3ccccc3)nc21 0.683%, Cc1ccc2c(c1)N(C(=O)CCC(=O)Nc1ccccc1Cl)CC(C)O2 (stereo not given) 3.69%, O=c1cc(CSc2ncn[nH]2)[nH]c2c(Cl)cccc12 5.81%, O=C(CC1N=C2c3ccccc3N=C(SCc3ccc(Cl)cc3)N2C1=O)NCCc1ccccc1 (stereo not given) -0.524%, COc1ccc(OC)c(Nc2nc(-c3ccc(C)cc3)nc3ccccc23)c1 3.4%, CCOC(=O)c1c(C)[nH]c(C)c1S(=O)(=O)NCC(=O)Nc1cccc(C(F)(F)F)c1 -9.17%, O=C(CSc1nnc(NC(=O)NC2CCCCC2)s1)Nc1ccccc1F 0.584%, CCOc1ccc(C2c3c(-c4ccc(C)cc4)n[nH]c3C(=O)N2c2ccc(Cl)cc2)cc1 (stereo not given) -2.41%, CC1CCCN(C(=O)Cn2c(=O)oc3cc(S(=O)(=O)N4CCCCC4)ccc32)C1 (stereo not given) 0.518%, COc1ccc(-n2c(=O)c3sc4ccccc4c3n(CC(=O)Nc3cccc(C)c3)c2=O)cc1 -1.09%, Cc1ccc(-c2nnc(Nc3ccc(Br)cc3)c3ccccc23)cc1S(=O)(=O)N1CCOCC1 0.956%, COc1ccccc1NC(=O)c1cc(S(=O)(=O)N(C)C2CCCCC2)ccc1F 11.6%, Cc1ccc(NC(=O)C(Cc2ccccc2)NS(=O)(=O)c2ccc3c(c2)oc(=O)n3C)c(Cl)c1 (stereo not given) -0.457%, COCCNC(=O)Cn1cc(S(=O)(=O)Cc2ccccc2Cl)c2ccccc21 -1.78%, CCOC(=O)N1CCc2c(sc3c2c(=O)n(CCc2ccccc2)c(=O)n3Cc2cc(C)ccc2C)C1 6.19%, CC1=C(C(=O)Nc2ccccc2C)C(c2cccnc2)n2nc(SCc3ccccc3)nc2N1 (stereo not given) -0.321%, CCOc1ccccc1NC(=O)c1cn(C2CCCC2)c(=O)c2c1c1ccccc1n2C -5.97%, COc1ccccc1NC(=O)C1=C(C)Nc2nc(SCc3ccccc3)nn2C1c1ccccn1 (stereo not given) 0.472%, CCN(CC)S(=O)(=O)c1ccc2c(c1)N(CC(=O)NCCc1ccc(OC)c(OC)c1)C(=O)CO2 -2.62%, Cc1nnc(NC(=O)CSc2nccn2-c2cccc(Cl)c2)s1 -11.1%, CC1CCCN(S(=O)(=O)c2cc3c(cc2Cl)NC(=O)CO3)C1 (stereo not given) 3.76%, Cc1nc2c(c(C)c1CCC(=O)Nc1cccc(C(F)(F)F)c1)c(=O)n(C)c(=O)n2C -6.68%, O=C(CCC(=O)N1CC2CCCN2c2ccccc21)NCc1ccccc1Cl (stereo not given) -13.6%, COc1ccc(-c2cc(=O)n3[nH]cnc3n2)cc1 -0.333%, COc1ccc(C(=O)Nc2ccccc2C(=O)OCc2cc(=O)n3c4c(sc3n2)CCCC4)cc1 0%, COc1cc(OC)c(Nc2nc3ccc(C)cc3n3nnnc23)cc1Cl -3.34%, COc1ccccc1CNc1nc2nc(C)c(Cl)c(C)n2n1 -8.21%, Cc1cccc(-c2nc(SCC(=O)Nc3cc(C)on3)c3c(=O)n(C)c(=O)n(C)c3n2)c1 0.321%, COc1ccc(N2CCN(c3ccc(-c4nc(-c5ccccc5C)no4)cc3[N+](=O)[O-])CC2)cc1 0.306%, Cc1ccc(NC(=O)N2CCC(N3CCN(Cc4ccccc4)C(=O)C3=O)CC2)cc1Cl -11.7%, CCCCCn1c(=O)[nH]c2cc(C(=O)Nc3cc(OC)cc(OC)c3)ccc2c1=O 0.996%, Cc1cccc(CNC(=O)C2CCCN(S(=O)(=O)c3cn(C)cn3)C2)c1 (stereo not given) 0%, COc1ccccc1CNC(=O)CCn1c(=O)c2ccccc2n(CC(=O)Nc2ccc(C)cc2)c1=O -31.3%, Cn1nnnc1SCCCNCc1ccc(-c2ccc(Br)cc2)o1 -18.2%, Cc1ccc2oc(=O)c3cc(C(=O)N4CCN(c5ccccc5)CC4)sc3c2c1 -2.96%, COC(=O)c1cc2oc3ccccc3c2n1Cc1cccc(C)c1 -1.07%, CN(C)S(=O)(=O)c1ccc2c(c1)N(CC(=O)NCc1ccccc1)C(=O)C1CCCCN21 (stereo not given) 2.56%, Cc1ccccc1CCNC(=O)c1ccc2c(c1)c(C)c(C)n2C -5.23%, Cc1ccc(NC(=O)CSc2nc3ccccc3nc2Cc2ccccc2F)cc1F 0%, Cc1nn(S(=O)(=O)c2ccc(C(C)C)cc2)c(C)c1S(=O)(=O)N1CCCCCC1 -0.392%
